Results published in patent US20190112349A1.
Where two headings read alike, the source gives them in different places.

How the values were obtained:
Assay in all cases: cell-based or functional assay
ACTR variant 103 [1] = target: ACTR variant 103
ACTR variant 112 [2] = target: ACTR variant 112
ACTR variant 113 [3] = target: ACTR variant 113
ACTR variant 114 [4] = target: ACTR variant 114
ACTR variant 115 [5] = target: ACTR variant 115
ACTR variant 116 [6] = target: ACTR variant 116
ACTR variant 131 = target: ACTR variant 131
Sequence of ACTR variant 131 (chain, as listed by the source mutant limits assumed): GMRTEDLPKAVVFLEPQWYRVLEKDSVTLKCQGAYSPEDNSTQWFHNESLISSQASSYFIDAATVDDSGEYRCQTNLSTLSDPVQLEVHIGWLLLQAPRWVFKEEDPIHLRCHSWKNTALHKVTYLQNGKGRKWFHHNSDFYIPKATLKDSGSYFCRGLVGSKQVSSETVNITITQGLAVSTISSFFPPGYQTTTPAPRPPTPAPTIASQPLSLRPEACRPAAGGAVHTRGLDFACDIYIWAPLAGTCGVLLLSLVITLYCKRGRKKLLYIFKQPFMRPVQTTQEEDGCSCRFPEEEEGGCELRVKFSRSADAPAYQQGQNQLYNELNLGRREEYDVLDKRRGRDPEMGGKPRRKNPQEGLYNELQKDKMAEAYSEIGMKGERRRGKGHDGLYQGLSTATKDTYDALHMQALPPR

ACTR variant 102 = target: ACTR variant 102
Sequence of ACTR variant 102 (chain, as listed by the source mutant limits assumed): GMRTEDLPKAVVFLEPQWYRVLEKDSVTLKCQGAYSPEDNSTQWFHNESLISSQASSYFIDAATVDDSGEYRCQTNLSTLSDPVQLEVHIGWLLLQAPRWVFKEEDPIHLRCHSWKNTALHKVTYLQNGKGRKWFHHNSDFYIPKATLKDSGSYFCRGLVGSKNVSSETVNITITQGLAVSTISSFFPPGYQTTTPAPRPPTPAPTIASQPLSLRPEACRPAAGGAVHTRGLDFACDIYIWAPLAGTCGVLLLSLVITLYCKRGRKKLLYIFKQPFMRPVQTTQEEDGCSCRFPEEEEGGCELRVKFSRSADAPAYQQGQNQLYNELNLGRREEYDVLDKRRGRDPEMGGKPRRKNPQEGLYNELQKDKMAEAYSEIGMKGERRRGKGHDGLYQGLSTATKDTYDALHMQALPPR

ACTR variant 103 [7] = target: ACTR variant 103; remark: listed apart in the source
ACTR variant 110 = target: ACTR variant 110
ACTR variant 112 [8] = target: ACTR variant 112; remark: listed apart in the source
ACTR variant 113 [9] = target: ACTR variant 113; remark: listed apart in the source
ACTR variant 114 [10] = target: ACTR variant 114; remark: listed apart in the source
ACTR variant 115 [11] = target: ACTR variant 115; remark: listed apart in the source
ACTR variant 116 [12] = target: ACTR variant 116; remark: listed apart in the source
ACTR variant 126 = target: ACTR variant 126
ACTR variant 127 = target: ACTR variant 127
ACTR variant 128 = target: ACTR variant 128
ACTR variant 129 = target: ACTR variant 129
ACTR variant 130 = target: ACTR variant 130
Sequence of ACTR variant 130 (chain, as listed by the source mutant limits assumed): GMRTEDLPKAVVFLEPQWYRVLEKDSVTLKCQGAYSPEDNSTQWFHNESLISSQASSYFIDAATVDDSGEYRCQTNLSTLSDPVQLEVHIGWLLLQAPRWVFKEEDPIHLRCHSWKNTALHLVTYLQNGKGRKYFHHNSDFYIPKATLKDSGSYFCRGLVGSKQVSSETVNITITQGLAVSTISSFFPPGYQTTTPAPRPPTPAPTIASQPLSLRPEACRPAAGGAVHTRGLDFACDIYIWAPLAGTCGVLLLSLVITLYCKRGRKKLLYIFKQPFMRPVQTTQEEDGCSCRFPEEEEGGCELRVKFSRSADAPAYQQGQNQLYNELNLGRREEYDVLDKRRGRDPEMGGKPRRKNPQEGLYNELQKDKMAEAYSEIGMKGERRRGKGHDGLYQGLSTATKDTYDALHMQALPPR

ACTR variant 26 = target: ACTR variant 26
Sequence of ACTR variant 26 (chain, as listed by the source mutant limits assumed): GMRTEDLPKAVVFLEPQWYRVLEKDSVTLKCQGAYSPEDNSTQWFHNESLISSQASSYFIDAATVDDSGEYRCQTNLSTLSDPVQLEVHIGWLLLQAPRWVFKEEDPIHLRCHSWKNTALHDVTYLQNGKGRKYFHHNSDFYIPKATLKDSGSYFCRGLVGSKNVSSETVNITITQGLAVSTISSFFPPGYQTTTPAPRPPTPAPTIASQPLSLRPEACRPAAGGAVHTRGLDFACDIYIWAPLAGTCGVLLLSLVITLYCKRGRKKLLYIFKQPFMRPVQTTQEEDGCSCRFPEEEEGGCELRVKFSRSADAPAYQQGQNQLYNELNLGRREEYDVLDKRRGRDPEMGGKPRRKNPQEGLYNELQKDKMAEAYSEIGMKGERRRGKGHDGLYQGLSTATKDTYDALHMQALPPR

ACTR variant 92 = target: ACTR variant 92
ACTR variant 93 = target: ACTR variant 93
ACTR variant 94 = target: ACTR variant 94
Sequence of ACTR variant 94 (chain, as listed by the source mutant limits assumed): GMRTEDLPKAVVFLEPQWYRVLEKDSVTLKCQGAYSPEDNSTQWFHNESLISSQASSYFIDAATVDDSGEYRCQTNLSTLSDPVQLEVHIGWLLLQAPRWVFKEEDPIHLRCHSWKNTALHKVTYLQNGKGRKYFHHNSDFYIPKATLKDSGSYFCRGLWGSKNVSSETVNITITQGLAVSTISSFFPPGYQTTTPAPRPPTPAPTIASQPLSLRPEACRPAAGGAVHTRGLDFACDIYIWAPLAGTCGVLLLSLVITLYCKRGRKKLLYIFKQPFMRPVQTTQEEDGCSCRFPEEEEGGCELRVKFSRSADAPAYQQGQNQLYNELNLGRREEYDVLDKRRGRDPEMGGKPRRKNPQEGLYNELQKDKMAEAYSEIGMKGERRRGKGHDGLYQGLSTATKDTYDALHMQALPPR

Sequence of ACTR variant 103 (chain, as listed by the source mutant limits assumed): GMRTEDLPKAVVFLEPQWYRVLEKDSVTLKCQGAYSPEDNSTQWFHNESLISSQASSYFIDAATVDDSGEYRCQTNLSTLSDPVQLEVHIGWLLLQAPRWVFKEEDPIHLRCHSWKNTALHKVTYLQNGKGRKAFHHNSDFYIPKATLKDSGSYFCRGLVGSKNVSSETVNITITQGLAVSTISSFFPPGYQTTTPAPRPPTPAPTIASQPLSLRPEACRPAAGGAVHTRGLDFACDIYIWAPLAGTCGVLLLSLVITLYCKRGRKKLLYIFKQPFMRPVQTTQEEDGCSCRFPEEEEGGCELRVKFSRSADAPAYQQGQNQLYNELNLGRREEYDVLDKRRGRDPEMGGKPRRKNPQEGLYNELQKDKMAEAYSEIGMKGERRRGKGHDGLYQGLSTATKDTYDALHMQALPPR
Sequence of ACTR variant 114 (chain, as listed by the source mutant limits assumed): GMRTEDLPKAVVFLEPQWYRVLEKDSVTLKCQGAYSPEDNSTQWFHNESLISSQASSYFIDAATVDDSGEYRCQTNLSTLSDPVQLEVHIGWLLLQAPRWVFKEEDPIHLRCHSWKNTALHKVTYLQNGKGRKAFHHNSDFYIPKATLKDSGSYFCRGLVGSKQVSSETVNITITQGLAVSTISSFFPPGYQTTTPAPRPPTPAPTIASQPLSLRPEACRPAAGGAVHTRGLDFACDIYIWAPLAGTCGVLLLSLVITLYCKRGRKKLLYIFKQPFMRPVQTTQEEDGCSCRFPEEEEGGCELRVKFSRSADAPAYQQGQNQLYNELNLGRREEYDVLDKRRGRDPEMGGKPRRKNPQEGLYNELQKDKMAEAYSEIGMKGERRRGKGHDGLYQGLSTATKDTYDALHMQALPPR
Sequence of ACTR variant 116 (chain, as listed by the source mutant limits assumed): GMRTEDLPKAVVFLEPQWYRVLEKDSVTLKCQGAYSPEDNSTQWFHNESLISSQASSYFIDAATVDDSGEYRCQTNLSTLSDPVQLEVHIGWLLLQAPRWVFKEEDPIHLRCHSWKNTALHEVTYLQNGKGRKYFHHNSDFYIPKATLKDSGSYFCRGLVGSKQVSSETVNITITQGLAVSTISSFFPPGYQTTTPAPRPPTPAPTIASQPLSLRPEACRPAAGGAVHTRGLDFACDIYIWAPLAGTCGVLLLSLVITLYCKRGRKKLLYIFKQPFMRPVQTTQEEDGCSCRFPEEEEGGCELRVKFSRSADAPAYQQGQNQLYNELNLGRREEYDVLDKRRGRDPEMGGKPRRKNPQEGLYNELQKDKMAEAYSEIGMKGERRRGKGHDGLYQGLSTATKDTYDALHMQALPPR
Sequence of ACTR variant 112 (chain, as listed by the source mutant limits assumed): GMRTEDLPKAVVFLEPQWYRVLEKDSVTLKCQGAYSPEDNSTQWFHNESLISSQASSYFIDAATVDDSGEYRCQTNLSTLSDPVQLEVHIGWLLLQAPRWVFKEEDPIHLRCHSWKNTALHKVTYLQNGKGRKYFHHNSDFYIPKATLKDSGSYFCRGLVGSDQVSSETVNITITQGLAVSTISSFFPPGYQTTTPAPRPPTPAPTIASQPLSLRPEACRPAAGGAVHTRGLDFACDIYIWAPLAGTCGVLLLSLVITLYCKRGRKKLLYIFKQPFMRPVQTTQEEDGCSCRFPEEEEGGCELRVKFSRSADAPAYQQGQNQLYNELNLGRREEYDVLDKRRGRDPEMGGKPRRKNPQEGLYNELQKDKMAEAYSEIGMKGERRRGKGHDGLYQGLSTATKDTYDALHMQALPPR
Sequence of ACTR variant 115 (chain, as listed by the source mutant limits assumed): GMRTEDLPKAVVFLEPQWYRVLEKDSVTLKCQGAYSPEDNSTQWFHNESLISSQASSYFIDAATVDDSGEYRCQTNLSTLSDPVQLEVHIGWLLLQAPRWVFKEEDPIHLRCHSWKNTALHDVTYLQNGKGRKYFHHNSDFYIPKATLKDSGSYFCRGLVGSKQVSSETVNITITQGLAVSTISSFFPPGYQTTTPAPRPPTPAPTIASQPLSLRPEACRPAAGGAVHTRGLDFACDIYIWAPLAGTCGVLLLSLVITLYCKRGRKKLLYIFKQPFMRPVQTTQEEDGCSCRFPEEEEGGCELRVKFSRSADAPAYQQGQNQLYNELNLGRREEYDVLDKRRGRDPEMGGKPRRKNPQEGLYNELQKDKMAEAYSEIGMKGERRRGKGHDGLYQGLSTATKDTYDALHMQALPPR
Sequence of ACTR variant 113 (chain, as listed by the source mutant limits assumed): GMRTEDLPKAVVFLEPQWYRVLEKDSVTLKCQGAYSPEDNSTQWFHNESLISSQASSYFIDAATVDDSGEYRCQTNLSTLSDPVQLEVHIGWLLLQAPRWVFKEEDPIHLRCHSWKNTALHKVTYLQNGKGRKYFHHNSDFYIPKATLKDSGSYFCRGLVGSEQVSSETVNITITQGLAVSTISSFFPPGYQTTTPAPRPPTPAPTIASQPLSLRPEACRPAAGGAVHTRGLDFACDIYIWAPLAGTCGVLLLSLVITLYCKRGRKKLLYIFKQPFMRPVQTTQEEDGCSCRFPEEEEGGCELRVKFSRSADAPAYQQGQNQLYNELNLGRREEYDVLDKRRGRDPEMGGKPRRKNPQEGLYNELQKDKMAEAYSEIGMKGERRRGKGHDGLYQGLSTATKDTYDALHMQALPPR

B1: rituximab with heavy chain variant 176 (SEQ ID NO: 29) (antibody, part only; not given: rituximab light chain, part only)
heavy: QVQLQQPGAELVKPGASVKMSCKASGYTFTSYNMHWVKQTPGRGLEWIGAIYPGNGDTSYNQKFKGKATLTADKSSSTAYMQLSSLTSEDSAVYYCARSTYYGGDWYFNVWGAGTTVTVSA[not shown - human IgG1 constant region with changes]
B1 gave an IFNγ release EC50 (ACTR variant 103 [1]) of 4.48 nM, an IL2 release EC50 (ACTR variant 103 [1]) of 9.32 nM and a maximum IFNγ (curve fit) (ACTR variant 103 [1]) of 86300 pg/mL. For the same binder, the maximum IL2 (curve fit) (ACTR variant 103 [1]) was 1550 pg/mL, the IFNγ release EC50 (ACTR variant 112 [2]) was 4.62 nM and the IL2 release EC50 (ACTR variant 112 [2]) was 8.6 nM. For the same binder, the maximum IFNγ (curve fit) (ACTR variant 112 [2]) was 60300 pg/mL, the maximum IL2 (curve fit) (ACTR variant 112 [2]) was 762 pg/mL and the IFNγ release EC50 (ACTR variant 113 [3]) was 5.15 nM. It also gave an IL2 release EC50 (ACTR variant 113 [3]) of 7.92 nM, a maximum IFNγ (curve fit) (ACTR variant 113 [3]) of 18600 pg/mL and a maximum IL2 (curve fit) (ACTR variant 113 [3]) of 417 pg/mL. The IFNγ release EC50 (ACTR variant 114 [4]) was 1.37 nM, the IL2 release EC50 (ACTR variant 114 [4]) was 1.94 nM and the maximum IFNγ (curve fit) (ACTR variant 114 [4]) was 117000 pg/mL. The maximum IL2 (curve fit) (ACTR variant 114 [4]) was 1630 pg/mL, the IFNγ release EC50 (ACTR variant 115 [5]) was 1.57 nM and the IL2 release EC50 (ACTR variant 115 [5]) was 1.89 nM. It also gave a maximum IFNγ (curve fit) (ACTR variant 115 [5]) of 92600 pg/mL, a maximum IL2 (curve fit) (ACTR variant 115 [5]) of 1970 pg/mL and an IFNγ release EC50 (ACTR variant 116 [6]) of 4 nM. For the same binder, the IL2 release EC50 (ACTR variant 116 [6]) was 5.79 nM, the maximum IFNγ (curve fit) (ACTR variant 116 [6]) was 47900 pg/mL and the maximum IL2 (curve fit) (ACTR variant 116 [6]) was 764 pg/mL. For the same binder, the IFNγ release EC50 (ACTR variant 131) was 0.45 nM, the IL2 release EC50 (ACTR variant 131) was 0.91 nM and the maximum IFNγ (curve fit) (ACTR variant 131) was 104000 pg/mL. The maximum IL2 (curve fit) (ACTR variant 131) was 2040 pg/mL, the IL2 release EC50 (ACTR variant 102) was 0.25 nM and the Jurkat NFAT luciferase EC50 (ACTR variant 102) was 0.29 nM. It also gave a Jurkat NFAT luciferase maximal luminescence (curve fit) (luminescence units) (ACTR variant 102) of 114000, a maximum IL2 (curve fit) (ACTR variant 102) of 2600 pg/mL and an IL2 release EC50 (ACTR variant 103 [7]) of 1.29 nM. For the same binder, the Jurkat NFAT luciferase EC50 (ACTR variant 103 [7]) was 3.65 nM, the Jurkat NFAT luciferase maximal luminescence (curve fit) (luminescence units) (ACTR variant 103 [7]) was 66100 and the maximum IL2 (curve fit) (ACTR variant 103 [7]) was 572 pg/mL. The luminescence at highest antibody concentration tested (EC50 NA) (luminescence units) (ACTR variant 110) was 1200, the luminescence at highest antibody concentration tested (EC50 NA) (luminescence units) (ACTR variant 112 [8]) was 19800 and the luminescence at highest antibody concentration tested (EC50 NA) (luminescence units) (ACTR variant 113 [9]) was 14200. The Jurkat NFAT luciferase EC50 (ACTR variant 114 [10]) was 3.3 nM, the Jurkat NFAT luciferase maximal luminescence (curve fit) (luminescence units) (ACTR variant 114 [10]) was 151000 and the Jurkat NFAT luciferase EC50 (ACTR variant 115 [11]) was 2.21 nM. It also gave a Jurkat NFAT luciferase maximal luminescence (curve fit) (luminescence units) (ACTR variant 115 [11]) of 113000, a Jurkat NFAT luciferase EC50 (ACTR variant 116 [12]) of 6.96 nM and a Jurkat NFAT luciferase maximal luminescence (curve fit) (luminescence units) (ACTR variant 116 [12]) of 84900. The luminescence at highest antibody concentration tested (EC50 NA) (luminescence units) (ACTR variant 126) was 11600, the Jurkat NFAT luciferase EC50 (ACTR variant 127) was 1.69 nM and the Jurkat NFAT luciferase maximal luminescence (curve fit) (luminescence units) (ACTR variant 127) was 106000. For the same binder, the Jurkat NFAT luciferase EC50 (ACTR variant 128) was 0.94 nM, the Jurkat NFAT luciferase maximal luminescence (curve fit) (luminescence units) (ACTR variant 128) was 113000 and the Jurkat NFAT luciferase EC50 (ACTR variant 129) was 3.38 nM. The Jurkat NFAT luciferase maximal luminescence (curve fit) (luminescence units) (ACTR variant 129) was 77800, the Jurkat NFAT luciferase EC50 (ACTR variant 130) was 0.55 nM and the Jurkat NFAT luciferase maximal luminescence (curve fit) (luminescence units) (ACTR variant 130) was 70600. The Jurkat NFAT luciferase EC50 (ACTR variant 26) was 4.79 nM, the Jurkat NFAT luciferase EC50 (virally transduced cells) (ACTR variant 26) was 2.8 nM and the Jurkat NFAT luciferase maximal luminescence (curve fit) (luminescence units) (ACTR variant 26) was 39200. It also gave a luminescence at highest antibody concentration tested (EC50 NA) (luminescence units) (ACTR variant 92) of 5440, a Jurkat NFAT luciferase EC50 (ACTR variant 93) of 7.96 nM and a Jurkat NFAT luciferase maximal luminescence (curve fit) (luminescence units) (ACTR variant 93) of 13100. The IL2 release EC50 (ACTR variant 94) was 0.92 nM, the Jurkat NFAT luciferase EC50 (ACTR variant 94) was 2.14 nM and the Jurkat NFAT luciferase maximal luminescence (curve fit) (luminescence units) (ACTR variant 94) was 68000. The maximum IL2 (curve fit) (ACTR variant 94) was 2080 pg/mL.
